# Assay results published in article PMC12136788.
# Some of the results follow.
# T1: UNK ZnF1-3 (human, UniProt Q9C0B0 31-174)
# T1 sequence: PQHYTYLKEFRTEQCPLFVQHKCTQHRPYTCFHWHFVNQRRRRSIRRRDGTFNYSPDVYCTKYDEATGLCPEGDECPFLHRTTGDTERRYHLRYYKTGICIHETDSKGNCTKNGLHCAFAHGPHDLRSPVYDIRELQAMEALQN
# B1: chr3:176767854:176767855:-_ENSG00000177565_ENST00000430069|hu_hu|hu_hu_hu_mus_False|58_78 (ssRNA)
# RNA: GGGAGUUCUACAGUCCGACGAUCGACAUCCUUGUUACUGGGCACGUCCUGCCCUCCUUCUCGUAUACAGUGUCUAAGUACUAACUGCGUAGGGCCACUCGUGCUGUUCUCACUGAGGUUCCAGAUUCUUGCCGUGGAGUCUCCCAACAGAGGAUUGAGCAUCA
# B2: 39662316_39662436_4025_3pUTR_ENSG00000078142_ENST00000262039|human|control|control (ssRNA)
# RNA: GGGAGUUCUACAGUCCGACGAUCGUAUUUUCAUUUUUACCAUUUUUCUAAUCAGCAGGUAUGUUUUAUACAAACUAUAUUCCAUAUGCCUCUAGAGUGUCUCUUAAUUACAUGCUUGCCCUCUCGCCGGUAACCCCACUCUGACAACAGAGGAUUGAGCAUCA
# B3: chr12:105536279:105536280:+_ENSG00000136051_ENST00000332180|hu_mus|hu_hu_hu_mus_True|8_38 (ssRNA)
# RNA: GGGAGUUCUACAGUCCGACGAUCAGCACUGAACAUGUAAUGUAAUCUGGCUGCAUCGACAGCAUUUUCAUAUACAUCAUCUAAAUAAAUCGGGAAGACAGCUCGAUGCCAGUAUAAAAAACAGCAGUCACAUUGUGCUUGGACCAACAGAGGAUUGAGCAUCA
# B4: 24728093_24728282_11095_CDS_ENSMUSG00000032855_ENSMUST00000035565|mouse|control|control (ssRNA)
# RNA: GGGAGUUCUACAGUCCGACGAUCAGGGUGAAGCCGCUUGGCCACAAGGGAGAAGUAGAGGGCUUCCAGCAGGACCUUAAGGGGCUCCCAGCCAAGAAAGGAGGCCAGGAAGCUGGAGCUGCUUGAGAGAAGCCACAUGACACUCAACAGAGGAUUGAGCAUCA
# B5: chr7:141441981:141441982:+_ENSG00000106028_ENST00000265304|hu_mus|hu_hu_hu_mus_False|1_38 (ssRNA)
# RNA: GGGAGUUCUACAGUCCGACGAUCCUCAUGUCUUACAAACUGACGAAAUACCUGUAACACAGGUCUUCGAAACAUGGCUUCUGUUUUUCUUACAACCAGUCUAAUCUGCUUUUCCUAAAGGAAAGAAAGAAAAGAGAAGCCCAGCAACAGAGGAUUGAGCAUCA
# B6: 87157000_87157120_506_3pUTR_ENSMUSG00000021252_ENSMUST00000021676|mouse|control|control (ssRNA)
# RNA: GGGAGUUCUACAGUCCGACGAUCAGAGGGUGAAUGAAGAAGACAGUGGAGGUGGAAGACGAUGUUUCAGAGCUGGCAAGGCUGGCCUCAAUUUCUUUUCUUCUGUCUGGAUACUGGUUCUGCCUCUAGGUACCGGAGCCCGACCAACAGAGGAUUGAGCAUCA
# B7: chr16:56712917:56712918:-_ENSMUSG00000022757_ENSMUST00000065515|mus_hu|FALSE|FALSE (ssRNA)
# RNA: GGGAGUUCUACAGUCCGACGAUCAUGAUUAGCUUCCCACUUAGAUCCAACUGUCCGUUCAUGGUGGACUCCAGGAUGUUCUAUAUAUACAACUCUAGAGAAAGACCAGGACGCAUGCGCGACGGCGCGAGGCGCAGGGCUGGCCAACAGAGGAUUGAGCAUCA
# B8: chr7:75932113:75932114:+_ENSG00000106211_ENST00000248553|hu_hu|hu_hu_hu_mus_False|1_108 (ssRNA)
# RNA: GGGAGUUCUACAGUCCGACGAUCCUGCGACCACUCCUCGGGCAACCGGGGCACCCCGAAAGCUUGAUCGAAGAGGCGGCUGUGUGCAGGGUACCAGUCCCGGAAUGGUUCCCAGCUCGGGCUCCGCAGCAGCGAGAGGACGCGCAACAGAGGAUUGAGCAUCA
# B9: chr3:179287964:179287965:+_ENSG00000136518_ENST00000429709|hu_hu|hu_hu_hu_mus_True|38_78 (ssRNA)
# RNA: GGGAGUUCUACAGUCCGACGAUCCUUGAGUGGUGAGAUGGCCUCCAUGUUCUCCCUCGGAACACGCAGGGCAUUGGUGUCUAUGUAGUAGGUGGGCCCGCCUUGUUUGCCUUUGUCACCAUCAAUCUCCAUCAUUGUACUUCCCAACAGAGGAUUGAGCAUCA
# B10: chr4:83122263:83122264:-_ENSMUSG00000028484_ENSMUST00000107214|mus_hu|FALSE|FALSE (ssRNA)
# RNA: GGGAGUUCUACAGUCCGACGAUCAUUUGAUUGUUUAGUUGCUGCCUGUUGACUUGAAAAUUUCACUUUUGGAUUGUUAUCUAUCUCCCAUAAACCUUCAUUAAAACCUUUUCUUUUAUUUGGUUUGCCAUACUUUUCCUUAUUCAACAGAGGAUUGAGCAUCA
# B11: chr7:127231458:127231459:+_ENSG00000004059_ENST00000000233|hu_mus|FALSE|FALSE (ssRNA)
# RNA: GGGAGUUCUACAGUCCGACGAUCUCCAGGCUCCAACGACAAGAGAGAGCAUGCAGGCAGGCGCAGGAGCAGAGGCCUGUCUGUGGGGAGGAAGAGUGGGGAGGAAGGGCACUGCCUGAGGAGUCCGGGAGUCUGGUCAUCCCGCAACAGAGGAUUGAGCAUCA
# B12: chr6:30692278:30692279:+_ENSG00000196230_ENST00000327892|hu_mus|FALSE|FALSE (ssRNA)
# RNA: GGGAGUUCUACAGUCCGACGAUCUCAGAGUGGAAAGAGAAAGGAGACAUUCCACAAACAAAUAUUUAUUGAGUGCCUGCCAUGUGCCAGGCACCAUUUACCCCCAAUGAGAAAACAGAACAAAACAAAUACAAGACAGAGGCACAACAGAGGAUUGAGCAUCA
# B13: chr3:10015032:10015033:+_ENSMUSG00000027533_ENSMUST00000029046|mus_mus|mus_mus_mus_hu_True|8_8 (ssRNA)
# RNA: GGGAGUUCUACAGUCCGACGAUCGUUUUUACCAUCACAAGUGAUGAUACAAUCUGGCUUGGCCAUUGCGCCCAUUUUUCGCAAAGCUAUUCCCACUCCUAGCUCCUUCAUGUAUUCAUCAAAGCCUUGGCUUUCCACCAGGCGCAACAGAGGAUUGAGCAUCA
# B14: 27671025_27672237_8332_CDS_ENSMUSG00000022263_ENSMUST00000090247|mouse|control|control (ssRNA)
# RNA: GGGAGUUCUACAGUCCGACGAUCGUUAAGAAGCUUCACAGAUACCUUGUUACUGAGCCCUUCUCGUGGCUUCCUGUACCCAUUCUCCAACUUGCCAUCCCUUUUGCCGUCUUUAUCUUUCUUCUCAGACUUCUUCCUUAAACGCAACAGAGGAUUGAGCAUCA
# B15: chr11:87793471:87793472:-_ENSMUSG00000020483_ENSMUST00000020775|mus_mus|mus_mus_mus_hu_False|8_18 (ssRNA)
# RNA: GGGAGUUCUACAGUCCGACGAUCUGGACUUGAAAAUAAAAGAAUAAGCUGGAUCCCCCACCCCCCCACAUUGUCAACCCUACACGAGAGUUUUGAAGGCGACUCAUGAAAAUCAGCCUCAAUUGGCAAUGACAACCCCCCACCCAACAGAGGAUUGAGCAUCA
# B16: chr14:78183846:78183847:+_ENSG00000119705_ENST00000557342|hu_hu|hu_hu_hu_mus_False|38_38 (ssRNA)
# RNA: GGGAGUUCUACAGUCCGACGAUCUCUCAGAAAUCUUUCUUCAUCAGAUGUUUGAGCUCCGUGCAAAGCCUUUGCUCUUUGAGCUUGAACGUGGAUCUUUACUCCAUAAAGCACUGUCAGAAAAGGUAAUUUUUUUUUUAAAGACAACAGAGGAUUGAGCAUCA
# B17: 100621730_100624656_1126_CDS_ENSMUSG00000028532_ENSMUST00000030257|mouse|control|control (ssRNA)
# RNA: GGGAGUUCUACAGUCCGACGAUCGACUAUGUGCUUGGACUGUGGCCGGACGGUAGAGACGUAGAUGGGUCGACUGCGGUGCUCGUAGCUGCCCUUACACCGGAACUUGUGUGCUGGGAAGACGGUGAAAAUCCCUUCUUCUGACAACAGAGGAUUGAGCAUCA
# B18: chr12:39763582:39763583:-_ENSG00000139116_ENST00000544797|hu_mus|hu_hu_hu_mus_False|28_68 (ssRNA)
# RNA: GGGAGUUCUACAGUCCGACGAUCCUCUAGGAACUGGGCAUUCACUUUGAAUUCAGGAGGGGGCAGCCCAUUUUUAAUCGCUGAGGUCUUUUUCUCAUCAAUACUCUUAAAAAGGUGUCUAACAGCACGAGAGAUGAUGCCCUGCAACAGAGGAUUGAGCAUCA
# B19: chr15:103023242:103023243:-_ENSMUSG00000009575_ENSMUST00000118152|mus_hu|motif|central (ssRNA)
# RNA: GGGAGUUCUACAGUCCGACGAUCAACAUCUGAACUAGCAGCUUUGAUGAGGGGUGGGGGGCAGAAAAUUUGCCGAGUCACGGAGUAGUUCCAGUCUUGGAGACAGCUCAGUGAGGACCAAAGCCUGUGUGUCAGGCUUAAACUCAACAGAGGAUUGAGCAUCA
# B20: chr3:20019835:20019836:+_ENSG00000144566_ENST00000273047|hu_hu|FALSE|FALSE (ssRNA)
# RNA: GGGAGUUCUACAGUCCGACGAUCCAUGAAUAUUUCAUUUACAUUCAUUGAUGUUUUAGCGGAUGUCUCCAUGAAUAAUAAACUAUUGUCAUCUGCAUAGGACUGUGCUUCCUGGAAAUCUACUGCUCUUUUAUUUGCUAGGUCCAACAGAGGAUUGAGCAUCA
# B21: chrX:71549400:71549401:+_ENSMUSG00000019087_ENSMUST00000019231|mus_hu|mus_mus_mus_hu_False|1_38 (ssRNA)
# RNA: GGGAGUUCUACAGUCCGACGAUCGCAGUAGGAAGAGGGAAGCUCUUCAGUCCAGUGCGCUGCAGGGUGGGAAAGCAACAACACGGACACCGUCCCACCUCAAUUCCCCCCACUGGCACAGGGUCACACAAUCUGGGAAGUGAUCAACAGAGGAUUGAGCAUCA
# B22: chr3:150289932:150289933:+_ENSG00000144895_ENST00000460851|hu_hu|FALSE|FALSE (ssRNA)
# RNA: GGGAGUUCUACAGUCCGACGAUCUUUGUAGUUUUUCACAUCCCACACUUCCAUUUGUCCCCUCAGAUUUCCAAAUCCAGCUAAUACUAAUAUAUGUCCAUGAGGGCUAUAGUAGGCUGCAUUACGAGGACCAGUUCCAAAGUCCAACAGAGGAUUGAGCAUCA
# Molecular target: T1, UNK ZnF1-3
# Experiment: nsRBNS (natural sequence RNA bind-n-seq); RBNS binding buffer (assumed for nsRBNS): 25 mM Tris pH 7.5, 150 mM KCl, 3 mM MgCl2, 0.01% Triton X-100, 500 ug/ml BSA, 20 U/ml SUPERase-In, 4 C; UNK is unkempt and MSI1 is Musashi-1; names of the RNAs are library labels; protein concentration not given here; high values mean tight binding
row,Binder,binding signal [enrichment R]
1,B1,0.551
2,B2,0.617
3,B3,3.02
4,B4,1.01
5,B5,0.521
6,B6,1.35
7,B7,1.02
8,B8,0.679
9,B9,0.432
10,B10,0.439
11,B11,3.06
12,B12,1.92
13,B13,0.688
14,B14,0.481
15,B15,2.07
16,B16,0.883
17,B17,0.812
18,B18,1.81
19,B19,1.45
20,B20,0.593
21,B21,1.14
22,B22,1.05
